# In US7834164B2 (priority 2006, dated 2010):
# Where two headings read alike, the source gives them in different places. Not every detail of the peptide structures is certain; ends, links or a residue may be inferred. Bridge positions count the residues as written; N and C are the ends. Peptide text beside a SMILES is read from it.
# Tests used:
# [1] = tested on: IL-2 production in human whole blood; type: cell-based
# [2] = tested on: IFN-g production in human whole blood; type: cell-based
# [3] = read-out: Analogue Activity IC50, WB/IL-2
# [4] = read-out: Analogue Activity IC50, WB/IFNg
SMILES,IC50 ([1]; read-out: WB/IL-2 (IC50)),IC50 ([2]; read-out: WB/IFNg (IC50)),"IC50 [1, 3]","IC50 [2, 4]"
"CC[C@H](C)[C@@H]1NC(=O)[C@H](CCCCN)NC(=O)[C@@H](NC(=O)[C@H](CCCCN)NC(=O)[C@@H](NC(=O)[C@H](CC(N)=O)NC(=O)[C@@H](NC(=O)[C@@H](NC(=O)[C@@H](NC(=O)CN)C(C)C)[C@@H](C)CC)[C@@H](C)CC)C(C)C)CSSC[C@@H]2NC(=O)[C@H](CCCCN)NC(=O)CNC(=O)[C@H](Cc3ccccc3)NC(=O)[C@H](CCCNC(=N)N)NC(=O)[C@H](CCSC)NC(=O)CNC(=O)[C@H](C)NC(=O)[C@H](CC(=O)O)NC(=O)[C@H](CCCCN)NC(=O)[C@@H]3CSSC[C@@H](C(=O)N[C@H](C(=O)N4CCC[C@H]4C(=O)N[C@@H](CCCCN)C(=O)O)[C@@H](C)O)NC(=O)[C@H](C)NC(=O)[C@H](CSSC[C@H](NC(=O)[C@H](CCC(N)=O)NC(=O)[C@H](CCCNC(=N)N)NC(=O)[C@H](CO)NC1=O)C(=O)N[C@@H](CC(C)C)C(=O)N[C@@H](CCCCN)C(=O)N1CCC[C@H]1C(=O)N3)NC(=O)[C@H](CCCCN)NC(=O)CNC(=O)[C@H](CC(N)=O)NC(=O)[C@H](CCSC)NC2=O [E16K, K20D, H34A] (H-GVIINVKCKISRQCLKPCKDAGMRFGKCMNGKCACTPK-OH; disulfide 8-28, 14-33, 18-35)",65.5 nM,26.6 nM,–,–
"CC[C@H](C)[C@@H]1NC(=O)[C@H](CCCCN)NC(=O)[C@@H](NC(=O)[C@H](CCCCN)NC(=O)[C@@H](NC(=O)[C@H](CC(N)=O)NC(=O)[C@@H](NC(=O)[C@@H](NC(=O)[C@@H](NC(=O)CN)C(C)C)[C@@H](C)CC)[C@@H](C)CC)C(C)C)CSSC[C@@H]2NC(=O)[C@H](CCCCN)NC(=O)CNC(=O)[C@H](Cc3ccccc3)NC(=O)[C@H](CCCNC(=N)N)NC(=O)[C@H](CCSC)NC(=O)CNC(=O)[C@H](C)NC(=O)[C@H](CC(=O)O)NC(=O)[C@H](CCCCN)NC(=O)[C@@H]3CSSC[C@@H](C(=O)NCC(=O)NCC(=O)NCC(=O)O)NC(=O)[C@H](Cc4c[nH]cn4)NC(=O)[C@H](CSSC[C@H](NC(=O)[C@H](CCC(N)=O)NC(=O)[C@H](CCCNC(=N)N)NC(=O)[C@H](CO)NC1=O)C(=O)N[C@@H](CC(C)C)C(=O)N[C@@H](CCCCN)C(=O)N1CCC[C@H]1C(=O)N3)NC(=O)[C@H](CCCCN)NC(=O)CNC(=O)[C@H](CC(N)=O)NC(=O)[C@H](CCSC)NC2=O [E16K, K20D, T36G, P37G, K38G] (H-GVIINVKCKISRQCLKPCKDAGMRFGKCMNGKCHCGGG-OH; disulfide 8-28, 14-33, 18-35)",2.64 nM,3.64 nM,–,–
"CC[C@H](C)[C@@H]1NC(=O)[C@H](CCCCN)NC(=O)[C@@H](NC(=O)[C@H](CCCCN)NC(=O)[C@@H](NC(=O)[C@H](CC(N)=O)NC(=O)[C@@H](NC(=O)[C@@H](NC(=O)[C@@H](NC(=O)CN)C(C)C)[C@@H](C)CC)[C@@H](C)CC)C(C)C)CSSC[C@@H]2NC(=O)[C@H](CCCCN)NC(=O)CNC(=O)[C@H](Cc3ccccc3)NC(=O)[C@H](CCCNC(=N)N)NC(=O)[C@H](CCSC)NC(=O)CNC(=O)[C@H](C)NC(=O)[C@H](CC(=O)O)NC(=O)[C@H](CCCCN)NC(=O)[C@@H]3CSSC[C@@H](C(=O)N[C@@H](Cc4ccc(O)cc4)C(=O)N4CCC[C@H]4C(=O)N[C@@H](CCCCN)C(=O)O)NC(=O)[C@H](Cc4c[nH]cn4)NC(=O)[C@H](CSSC[C@H](NC(=O)[C@H](CCC(N)=O)NC(=O)[C@H](CCCNC(=N)N)NC(=O)[C@H](CO)NC1=O)C(=O)N[C@@H](CC(C)C)C(=O)N[C@@H](CCCCN)C(=O)N1CCC[C@H]1C(=O)N3)NC(=O)[C@H](CCCCN)NC(=O)CNC(=O)[C@H](CC(N)=O)NC(=O)[C@H](CCSC)NC2=O [E16K, K20D, T36Y] (H-GVIINVKCKISRQCLKPCKDAGMRFGKCMNGKCHCYPK-OH; disulfide 8-28, 14-33, 18-35)",0.639 nM,0.923 nM,–,–
"CC[C@H](C)[C@@H]1NC(=O)[C@H](CCCCN)NC(=O)[C@@H](NC(=O)[C@H](CCCCN)NC(=O)[C@@H](NC(=O)[C@H](CC(N)=O)NC(=O)[C@@H](NC(=O)[C@@H](NC(=O)[C@@H](NC(=O)CN)C(C)C)[C@@H](C)CC)[C@@H](C)CC)C(C)C)CSSC[C@@H]2NC(=O)[C@H](CCCCN)NC(=O)CNC(=O)[C@H](Cc3ccccc3)NC(=O)[C@H](CCCNC(=N)N)NC(=O)[C@H](CCSC)NC(=O)CNC(=O)[C@H](C)NC(=O)[C@H](CC(=O)O)NC(=O)[C@H](CCCCN)NC(=O)[C@@H]3CSSC[C@@H](C(=O)N[C@H](C(=O)N4CCC[C@H]4C(=O)N[C@@H](CCCCN)C(=O)O)[C@@H](C)O)NC(=O)[C@H](Cc4c[nH]cn4)NC(=O)[C@H](CSSC[C@H](NC(=O)[C@H](CCC(N)=O)NC(=O)[C@H](CCCNC(=N)N)NC(=O)[C@H](CO)NC1=O)C(=O)N[C@@H](CC(C)C)C(=O)N[C@@H](CCCCN)C(=O)N1CCC[C@H]1C(=O)N3)NC(=O)[C@H](CCCCN)NC(=O)CNC(=O)[C@H](CC(N)=O)NC(=O)[C@H](CCSC)NC2=O [E16K, K20D] (H-GVIINVKCKISRQCLKPCKDAGMRFGKCMNGKCHCTPK-OH; disulfide 8-28, 14-33, 18-35)",1.58 nM,1.32 nM,–,–
"CC[C@H](C)[C@@H]1NC(=O)[C@H](CCCCN)NC(=O)[C@@H](NC(=O)[C@H](CCCCN)NC(=O)[C@@H](NC(=O)[C@H](CC(N)=O)NC(=O)[C@@H](NC(=O)[C@@H](NC(=O)[C@@H](NC(=O)CN)C(C)C)[C@@H](C)CC)[C@@H](C)CC)C(C)C)CSSC[C@@H]2NC(=O)[C@H](CCCCN)NC(=O)CNC(=O)[C@H](Cc3ccccc3)NC(=O)[C@H](CCCNC(=N)N)NC(=O)[C@H](CCSC)NC(=O)CNC(=O)[C@H](C)NC(=O)[C@H](CCCCN)NC(=O)[C@H](CCCCN)NC(=O)[C@@H]3CSSC[C@@H](C(=O)N[C@H](C(=O)N4CCC[C@H]4C(=O)N[C@@H](CCCCN)C(=O)O)[C@@H](C)O)NC(=O)[C@H](Cc4c[nH]cn4)NC(=O)[C@H](CSSC[C@H](NC(=O)[C@H](CCC(N)=O)NC(=O)[C@H](CCCNC(=N)N)NC(=O)[C@H](CO)NC1=O)C(=O)N[C@@H](CC(C)C)C(=O)N[C@@H](CCC(=O)O)C(=O)N1CCC[C@H]1C(=O)N3)NC(=O)[C@H](C)NC(=O)CNC(=O)[C@H](CC(N)=O)NC(=O)[C@H](CCSC)NC2=O [K32A] (H-GVIINVKCKISRQCLEPCKKAGMRFGKCMNGACHCTPK-OH; disulfide 8-28, 14-33, 18-35)",–,–,0.0413 nM,0.034 nM
"CC[C@H](C)[C@@H]1NC(=O)[C@H](CCCCN)NC(=O)[C@@H](NC(=O)[C@H](CCCCN)NC(=O)[C@@H](NC(=O)[C@H](CC(N)=O)NC(=O)[C@@H](NC(=O)[C@@H](NC(=O)[C@@H](NC(=O)CN)C(C)C)[C@@H](C)CC)[C@@H](C)CC)C(C)C)CSSC[C@@H]2NC(=O)[C@H](CCCCN)NC(=O)CNC(=O)[C@H](Cc3ccccc3)NC(=O)[C@H](CCCNC(=N)N)NC(=O)[C@H](CCSC)NC(=O)CNC(=O)[C@H](C)NC(=O)[C@H](CCCCN)NC(=O)[C@H](CCCCN)NC(=O)[C@@H]3CSSC[C@@H](C(=O)N[C@H](C(=O)N4CCC[C@H]4C(=O)N[C@@H](C)C(=O)O)[C@@H](C)O)NC(=O)[C@H](Cc4c[nH]cn4)NC(=O)[C@H](CSSC[C@H](NC(=O)[C@H](CCC(N)=O)NC(=O)[C@H](CCCNC(=N)N)NC(=O)[C@H](CO)NC1=O)C(=O)N[C@@H](CC(C)C)C(=O)N[C@@H](CCC(=O)O)C(=O)N1CCC[C@H]1C(=O)N3)NC(=O)[C@H](CCCCN)NC(=O)CNC(=O)[C@H](CC(N)=O)NC(=O)[C@H](CCSC)NC2=O [K38A] (H-GVIINVKCKISRQCLEPCKKAGMRFGKCMNGKCHCTPA-OH; disulfide 8-28, 14-33, 18-35)",–,–,0.221 nM,0.343 nM
"CC[C@H](C)[C@@H]1NC(=O)[C@H](CCCCN)NC(=O)[C@@H](NC(=O)[C@H](CCCCN)NC(=O)[C@@H](NC(=O)[C@H](CC(N)=O)NC(=O)[C@@H](NC(=O)[C@@H](NC(=O)[C@@H](NC(=O)CN)C(C)C)[C@@H](C)CC)[C@@H](C)CC)C(C)C)CSSC[C@@H]2NC(=O)[C@H](CCCCN)NC(=O)CNC(=O)[C@H](Cc3ccccc3)NC(=O)[C@H](CCCNC(=N)N)NC(=O)[C@H](CCSC)NC(=O)CNC(=O)[C@H](C)NC(=O)[C@H](CCCCN)NC(=O)[C@H](CCCCN)NC(=O)[C@@H]3CSSC[C@@H](C(=O)N[C@H](C(=O)N4CCC[C@H]4C(=O)N[C@@H](CCCCN)C(=O)O)[C@@H](C)O)NC(=O)[C@H](Cc4c[nH]cn4)NC(=O)[C@H](CSSC[C@H](NC(=O)[C@H](CCC(N)=O)NC(=O)[C@H](CCCNC(=N)N)NC(=O)[C@H](CO)NC1=O)C(=O)N[C@@H](CC(C)C)C(=O)N[C@@H](CCC(=O)O)C(=O)N1CCC[C@H]1C(=O)N3)NC(=O)[C@H](CCCCN)NC(=O)CNC(=O)[C@H](CCC(=O)O)NC(=O)[C@H](CCSC)NC2=O [N30E] (H-GVIINVKCKISRQCLEPCKKAGMRFGKCMEGKCHCTPK-OH; disulfide 8-28, 14-33, 18-35)",–,–,14 nM,24.4 nM
"CC[C@H](C)[C@@H]1NC(=O)[C@H](CCCCN)NC(=O)[C@@H](NC(=O)[C@H](CCCCN)NC(=O)[C@@H](NC(=O)[C@H](CC(N)=O)NC(=O)[C@@H](NC(=O)[C@@H](NC(=O)[C@@H](NC(=O)CN)C(C)C)[C@@H](C)CC)[C@@H](C)CC)C(C)C)CSSC[C@@H]2NC(=O)[C@H](CCCCN)NC(=O)CNC(=O)[C@H](Cc3ccccc3)NC(=O)[C@H](CCCNC(=N)N)NC(=O)[C@H](CCSC)NC(=O)CNC(=O)[C@H](C)NC(=O)[C@H](CCCCN)NC(=O)[C@H](CCCCN)NC(=O)[C@@H]3CSSC[C@@H](C(=O)N[C@H](C(=O)N[C@@H](C)C(=O)N[C@@H](CCCCN)C(=O)O)[C@@H](C)O)NC(=O)[C@H](Cc4c[nH]cn4)NC(=O)[C@H](CSSC[C@H](NC(=O)[C@H](CCC(N)=O)NC(=O)[C@H](CCCNC(=N)N)NC(=O)[C@H](CO)NC1=O)C(=O)N[C@@H](CC(C)C)C(=O)N[C@@H](CCC(=O)O)C(=O)N1CCC[C@H]1C(=O)N3)NC(=O)[C@H](CCCCN)NC(=O)CNC(=O)[C@H](CC(N)=O)NC(=O)[C@H](CCSC)NC2=O [P37A] (H-GVIINVKCKISRQCLEPCKKAGMRFGKCMNGKCHCTAK-OH; disulfide 8-28, 14-33, 18-35)",–,–,0.956 nM,0.85 nM
